We go through 20 variants from the RNAGym collection of RNA variant scans (doi:10.7554/elife.90254).

Read counts are not given, so values of variants with three or more changes are uncertain.

To fix the notation:
B1: LINE1-full (parent)
chain: UACGUAGGUGGUUUUCCCCUGAUAGUGCUAAGGGGGCCUGGAAGUUUGGACUGGGCAGAGCUCAACACAGCGUGGCAAAGUGGCUGUGGCUAGACUGCCUCUCUGGAUUCCUCGUCACUCAGCAGGGCAUCUCUGAGAGAAAUGCC

Variants of B1 are the subject of the data set. As to the kind of experiment: self-cleavage, relative activity (ratio to wild type); higher = more cleavage; in vitro, sequencing; the parent is a self-cleaving ribozyme.
As for UACGUAGGUGGUCUUCCCCUGAUAGUGCUAAGGGGGCCUGGGAGUUUGGACCGGGCAGAGCUCAACACAGCGUGGCAAAGUGGCUGUGGCUAGACUGCCUCUCUGGAUUCCUCGUCACUCAGCAGGGCAUCUCUGAGAGAAAUGCC, the self-cleavage stood at 1.4.
Next, UACGUAGGUGGUCUUCCCCUGAUAGUGCUAAGGGGGCCUGGCAGUUUGGACUGGGCAGAGCUCAACACAGCGUGGCAAAGUGGCUGUGGCUAGACUGCCUCUCUGGAUUCCUCGUCACUCGGCAGGGCAUCUCUGAGAGAAAUGCC: 1.31; UACGUAGGUGGUCUUCCCCUGAUAGUGCUAAGGGGGCCUGGAGGUUUGGACUGGGCAGAGCUUAACACAGCGUGGCAAAGUGGCUGUGGCUAGACUGCCUCUCUGGAUUCCUCGUCUCUCAGCAGGGCAUCUCGGAGAGAAGUGCC: 0.21.
In the case of UACGUAGGUGGUCUUCCCCUGAUAGUGCUAAGGGGGCCUGGGAGUUUGGACUGGGCAGAGCUCAACACAGCGUGGCAAAGUGGCUGUGGCUAGACUGCCCCUCUGGAUUCCUCGUCACUCAGCAGGGCAUCUCUGAGGGAAAUGCC, the self-cleavage is 0.63.
Next, UACGUAGGUGGUCUUCCCCUGAUAGUGCUAAGGGGGCCUGGAGGUUUGGACUGGGCAGAGCUCAACACAGCGUGGCAAAGUGGCUGUGGCUAGACUGCCUCUCUGGAUUCCCCGUCACUCAGCAGGGCAUCUCUGAGAGAAAUGCC: 0.57; UACGUAGGUGGUCUUCCCCUGAUAGUGCUAAGGGGGCCUGGAGGUUUGGACUGGGCAGAGCUCAACUCAGCGUGGCAAAGUGGCUGUGGCUAGACUGCCCCUCUGGAUUCCUCGUCACUCAGCAGGGCAUCUCUGAGAGGAAUGCC: 0.37; UACGUAGGUGGUCUUCCCCUGAUAGUGCUAAGGGGGCCUGGAAGUUUGGACUGGGCGGAGCUCAACACAGCGUGGCAAAGUGGCUGUGGCUAGACUGCCCCUCUGGAUUCUUCGUCACUCAGCAGGGCAUCUCUGAGAGAAAUGCC: 2.67.
As for UACGUAGGUGGUCUUCCCCUGAUAGUGCUAUGGGGGCCUGGAAGUUAGGACUGGGCAGAGCUCAACACAGCGUGGCAAAGUGGCUGUGGCUAGACUGCCUCUCUGGGUUCCUCGUCACUCAGCAGGGCAUCUCUGGGAGAAAUGCC, the self-cleavage came to 0.56.
Next, UACGUAGGUGGUCUUCCCCUGAUAGUGCUAAGGGGGCCUGGGAGUUUGGACUGGGCAGAGCUCAACACAGCGUGGCAAAGUGGCUGUGGCUAGACUGCCUCUCUGGAUUCGUCGUCACUCAGCAGGGCAUCUCUGAGAGAAAUGCC: 1.79.
Consider UACGUAGGUGGUCUUCCCCUGAUAGUGCUAAGGGGGCCUGGAUGUUUGGACUGGGCAGAGCUCAACACAGCGUGGCAAAGUGGCUGUGGCUAGACUGCCUCUCUGGAUUCCUCGUCACUCAGCAGGGCGUCUCUGAGAGAAAUGCC, for which the self-cleavage amounted to 0.69.
Next, UACGUAGGUGGUCUUCCCCUGAUAGUGCUAAGGGGGCCUGGAUGUUUGGACUGGGCAGAGCUCAACACAGCGUGGCAAAGUGGCUGUGGCUAGACUGCCUCUCUGGAUUCCUCGUCACUCAGCAGGGCAUCUCUGGGAGAAAUGCC: 1.76.
Turning to UACGUAGGUGGUCUUCCCCUGAUAGUGCUAUGGGGGCCCGGAAGUUUGGACUGGGCAGAGCUCAACACAGCGUGGCAAAGUGGCUGUGGCUAGACUGCCCCUCUGGUUUCCUCGUCACUCAGCAGGGCAUCUCUGAGAGAAACGCC, the self-cleavage amounted to 0.
UACGUAGGUGGUCUUCCCCUGAUAGUGCUAAGGGGGCCUGGAAGUUUGGGCUGGGCAGAGCUCAACACAGCGUGGCAAAGCGGCUGUGGCUAGACUGCCUCUCUGGAUUCCUCGUCUCUCAGCAGGGCAUCUCUGAGAGAAAUGCC: the self-cleavage was determined as 0.92.
Next, UACGUAGGUGGUCUUCCCCUGAUAGUGCUAAGGGGGCCUGGGAGUUUGGACUGGGCAGAGCUCAACACAGCGUGGCAAAGUGGCUGUGGCUAGACUGCCUCUCUGGAUUCCUCGUCACUCAGCAGGGCAUCUCUGGGAGAAAUGCC: 1.54; UACGUAGGUGGUCUUCCCCUGAUAGUGCUAAGGGGGCCUGGAGGUUUGGACUGGGCAGAGCUCAACACAGCGUGGCAAAGUGGCUGUGGCUGGACUGCCUCUCUGGAUUCCUCGUCACUCAGCAGGGCAUCUCGGAGAGAAAUGCC: 0.16; UACGUAGGUGGUCUUCCCCUGAUAGUGCUAAGGGGGCCUGGAAGUUUGGGCUGGGCAGAGCUCAACACAGCGUGGCAAAGUGGCUGUGGCUAGACUGCCUCUCUGGAUUCCUCGUCACUCAGCAGGGCAUCUCUGAGAGAUAUGCC: 0.68.
Next, UACGUAGGUGGUCUUCCCCUGAUAGUGCUAAGGGGGCCUGGGAGUUUGGACUGGGCGGAGCUCAACACAGCGUGGCAAAGUGGCUGUGGCUAGGCUGCCUCUCUGGAUUCCUCGUCACUCAGCAGGGCAUCUCUGAGAGAAAUGCC: 0; UACGUAGGUGGUCUUCCCCUGAUAGUGCUAAGGGGGCCUGGUAGUUCGGACUGGGCAGAGCUCAACACAGCGUGGCAAAGUGGCUGUGGCUAGACUGCCCCUCUGGAUUCCUCGUCACUCAGUAGGGCAUCUCUGAGGGAAAUGCC: 1.53; UACGUAGGUGGUCUUCCCCUGAUAGUGCUAAGGGGGCCUGGGAGUUUGGGCUGGGCAGAGCUCAACACAGCGUGGCAAAGAGGCUGUGGCUAGACUGCCUCUCUGGAUUCCUCGUCACUCAGCAGGGCAUCUCAGAGAGAAAUGCC: 0.79.
On to UACGUAGGUGGUCUUCCCCUGAUAGUGCUAAGGGGGCCUGGAAGUUUGGGCUGGGCAGAGCUCAACACAGCGUGGCAGAGUGGCUGUGGCUAGACUGCCUCUCUGGAUUCCUCGUCACUCAGCAGGGCAUCUCUGAGAGAAGUGCC, for which the self-cleavage was determined as 0.71.
